Source: publication PMC4336329 (PLoS ONE, 2015)
Hit rate of the full screen: of about 310,000 compounds, about 2,200 (0.71%) showed an effect of 50% or more. Effects have a minus sign here. This is one part of the list.

Each compound was assayed against human ether-à-go-go-related gene (hERG) potassium channel (human, UniProt Q12809) (assay: primary screen, population patch clamp on CHO cells stably expressing hERG).
Chain of human ether-à-go-go-related gene (hERG) potassium channel (Q12809 whole entry, looked up): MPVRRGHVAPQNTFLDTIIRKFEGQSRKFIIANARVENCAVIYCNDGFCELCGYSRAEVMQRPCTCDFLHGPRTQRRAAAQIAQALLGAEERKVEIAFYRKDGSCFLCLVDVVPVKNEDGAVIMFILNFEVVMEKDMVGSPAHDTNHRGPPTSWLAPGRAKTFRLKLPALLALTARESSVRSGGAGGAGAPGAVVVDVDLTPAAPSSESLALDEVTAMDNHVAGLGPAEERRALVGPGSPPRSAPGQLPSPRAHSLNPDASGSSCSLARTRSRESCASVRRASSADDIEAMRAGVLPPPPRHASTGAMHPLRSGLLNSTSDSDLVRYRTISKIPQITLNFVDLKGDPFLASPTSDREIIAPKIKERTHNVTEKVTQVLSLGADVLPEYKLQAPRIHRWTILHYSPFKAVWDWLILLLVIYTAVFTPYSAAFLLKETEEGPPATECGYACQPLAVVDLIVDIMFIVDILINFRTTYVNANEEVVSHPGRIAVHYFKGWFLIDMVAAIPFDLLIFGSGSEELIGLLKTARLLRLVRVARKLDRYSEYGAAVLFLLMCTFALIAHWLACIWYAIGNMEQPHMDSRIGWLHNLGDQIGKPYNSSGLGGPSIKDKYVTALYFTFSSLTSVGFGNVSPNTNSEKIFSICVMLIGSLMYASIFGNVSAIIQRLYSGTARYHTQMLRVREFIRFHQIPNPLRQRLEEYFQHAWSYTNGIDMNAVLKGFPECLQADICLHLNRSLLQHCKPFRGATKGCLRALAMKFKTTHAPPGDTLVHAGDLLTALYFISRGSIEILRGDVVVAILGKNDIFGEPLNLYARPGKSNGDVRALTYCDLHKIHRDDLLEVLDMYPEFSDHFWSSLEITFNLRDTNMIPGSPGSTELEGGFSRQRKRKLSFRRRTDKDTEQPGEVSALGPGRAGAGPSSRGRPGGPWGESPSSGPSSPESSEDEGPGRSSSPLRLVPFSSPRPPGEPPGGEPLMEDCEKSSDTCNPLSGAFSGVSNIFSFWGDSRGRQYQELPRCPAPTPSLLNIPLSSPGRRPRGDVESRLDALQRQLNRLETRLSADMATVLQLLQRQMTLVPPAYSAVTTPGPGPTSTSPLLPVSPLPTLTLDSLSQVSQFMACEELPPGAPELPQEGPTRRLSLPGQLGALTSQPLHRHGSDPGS

Structure (SMILES) | hERG current change (%, negative = inhibition) at 1uM [%]
COCCNc1nnc(SC(C)C(=O)Nc2ccc(-c3nc4ccc(C)cc4s3)cc2)s1 (stereo not drawn) | 16.3
Cc1ccc(S(=O)(=O)NCCN2CCOCC2)cc1 | 2.88
COc1ccc(C(=O)COC(=O)c2ccc3ccccc3n2)cc1 | 0.823
O=C(NNC(=O)c1ccccc1[N+](=O)[O-])c1cnccn1 | -1.79
O=C(CC(=O)Nc1cccc(Cl)c1)N/N=C\c1ccccc1 | 2.14
COc1ccccc1NC(=O)C1CC(C)OC1=O (stereo not drawn) | 11.8
CCn1c(CSc2nc3ccccc3s2)nnc1SCC(=O)c1ccc2c(c1)OCCO2 | -1.35
CCN(Cc1ccccc1)S(=O)(=O)c1c(N)n(C)c(=O)n(C)c1=O | -0.624
COc1ccc(/C=C2\SC(=S)N(CC(=O)NCCO)C2=O)cc1 | 17
O=c1oc2ccccc2c(Nc2cccc3cccnc23)c1[N+](=O)[O-] | 13
Cc1oc(-c2ccc(Cl)cc2)nc1CN1CCC(C(=O)NCC2CCCO2)CC1 (stereo not drawn) | -28.4
CC1CCCC(C)N1CC(O)Cn1c2ccccc2c2ccccc21 (stereo not drawn) | 2.9
Cc1ccc(CNS(=O)(=O)c2c(N)n(C)c(=O)n(C)c2=O)cc1 | 11.2
CC(C)CCNS(=O)(=O)c1cc2c3c(c1)CCN3C(=O)CC2 | 8.65
O=C(CSc1nnc(CNC(=O)c2cccs2)o1)NCCc1ccccc1 | 2.78
CCc1ccc(/C=C2\SC(=S)N(CCC(=O)NC3=NCCS3)C2=O)cc1 | 17.2
O=C(c1ccc2nc[nH]c2c1)N1CCc2ccccc2C1 | 6.36
CS(=O)(=O)N(CC(=O)NCCc1ccccc1)C1CCCCC1 | -4.18
CC1=C(C(=O)N2CCc3ccccc32)C2(CCC(C)CC2)OC1=O (stereo not drawn) | 1.66

Structure (SMILES) | hERG current change (%, negative = inhibition) at 1uM [%]
O=C(Nc1ccc2c(c1)CCC2)Nc1ccc(F)cc1F | 10.5
CC(C)c1ccccc1NC(=O)COC(=O)Cc1c[nH]c2ccccc12 | 15.8
O=C(NC1CC1)C1=C[C@H](C2CCCCC2)C[C@H](OCCCCO)O1 | 11.7
CSc1ccc(NS(=O)(=O)c2ccc(-n3cnnn3)cc2)cc1 | 11.2
O=C(CS(=O)(=O)c1ccccc1)NCc1ccc(Cl)cc1 | 11
NC(=O)c1ccccc1OCC(=O)NC12CC3CC(CC(C3)C1)C2 | 11.1
Cc1ccc2[nH]c3c(=O)[nH]ncc3c2c1 | 13.6
O=C(CCCN1C(=O)c2ccccc2C1=O)Nc1ccc2c(c1)OCCO2 | 16.2
CCCCN1C(=O)C(O)=C(C(C)=O)C1c1ccccc1[N+](=O)[O-] (stereo not drawn) | 4.11
O=C(NN1C(=O)c2ccccc2NC12CCCCC2)c1ccccc1 | 1.07
COc1ccc(N(CC(=O)Nc2cc(C)ccc2C)S(=O)(=O)c2c(C)nn(C)c2C)cc1 | 7.7
C=CCNS(=O)(=O)c1ccc(OC)c(C)c1 | 14.2
COc1cc(/C=N/NS(=O)(=O)c2ccc(Br)cc2)ccc1O | 17.5
Cc1ccc(NCc2n[nH]c(=S)n2-c2ccccc2)c(C)c1 | 2.53
COc1ccc(-c2ocnc2C(=O)Nc2ccc3c(c2)CCC3)cc1 | 12.7
O=C(N/N=C/c1ccc(O)cc1O)/C(=C/c1ccccc1)CCO | 2.62
CC(=O)N/C(=C\c1ccc(F)cc1)C(=O)NC(C(=O)O)C(C)C (stereo not drawn) | 8.16
Cc1ccc2c(c1)-c1c(cnn1CC(=O)N(Cc1ccco1)C1CCCCC1)CO2 | 2.98
COC(=O)c1cc(S(=O)(=O)N2CCCCC2C)c[nH]1 (stereo not drawn) | 16.8

Structure (SMILES) | hERG current change (%, negative = inhibition) at 1uM [%]
COc1ccc(CCN(C)CC(O)COC(c2ccc(F)cc2)c2ccc(F)cc2)cc1OC (stereo not drawn) | -79.9
Cn1c(=O)[nH]c(=O)c2c1nc(SCC(=O)O)n2CCc1ccccc1 | 20.2
CCOC(=O)C1CCN(C(=O)c2cc3cc4cc(OC)ccc4nc3o2)CC1 | 5.14
COc1ccccc1CC(NC(C)=O)C(=O)N1CCN(C(=O)Nc2ccccc2Cl)CC1 (stereo not drawn) | 14.5
COC(=O)Nc1ccc(S(=O)(=O)N2CCN(c3ccc(F)cc3)CC2)cc1 | 7
Cc1ccc(SCC(=O)NC(=O)c2ccc(S(=O)(=O)N(C)C)cc2)cc1C | -2.42
N#Cc1nc(COc2ccc(F)cc2)oc1NCCCn1ccnc1 | -42.2
O=C(c1ccc(NS(=O)(=O)c2ccc3[nH]c(=O)[nH]c3c2)cc1)N1CCCC(C(F)(F)F)C1 (stereo not drawn) | 11.5
COc1ccc(S(=O)(=O)NC2CCSc3ccccc32)cc1OC (stereo not drawn) | 8.26
COc1ccccc1N(CC(=O)N/N=C(\C)c1ccccc1O)S(=O)(=O)c1ccc(C)cc1 | 9.21
Cc1ccc(Nc2nc(C)c(CCC(C)C)c(=O)[nH]2)cc1 | 8.07
CCOC(=O)C1CCCN(C(=S)Nc2cccc(Cl)c2)C1 (stereo not drawn) | 8.57
CC(Cc1cccc(C(F)(F)F)c1)NCCOC(=O)c1ccccc1.Cl (stereo not drawn) | 3.42
Cc1ccccc1C(=O)Oc1ccc(Sc2ccc(O)cc2)cc1 | 8.93
CCc1cccc(CC)c1NC(=S)NCC(c1cccnc1)N1CCOCC1 (stereo not drawn) | 3.5
O=C(COc1cccc(F)c1)Nc1nc(-c2cccnc2)cs1 | 14
COc1ccc(NC(=O)Nc2ccc(Cc3ccncc3)cc2)c(OC)c1 | 4.99
C#CCOc1ccc(C2C3=C(CC(C)(C)CC3=O)N(CC(=O)O)C3=C2C(=O)CC(C)(C)C3)cc1OC | 18.7
Cc1cc(Cl)ccc1OCCCC(=O)N1CCOCC1 | -7.13
